Laboratory results reported in PubChem BioAssay AID493208 (National Center for Advancing Translational Sciences (NCATS), 2011).
Among all 44,000 compounds or so, about 340 (0.77%) were called active. Not shown: some 5% with an inconclusive outcome. Calls follow the shape of the dose curve; as a rule, active = well fitted inhibition curve with a large enough effect; inconclusive = small, poorly fitted or top-dose-only effect; inactive = flat fitted curve, though single readings scatter. This is one part of the list.

Experiment: Acumen qHTS Assay for Inhibitors of the mTORC1 Signaling Pathway in MEF (Tsc2-/-, p53-/-) Cells: Sytravon;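 also: plate controls were DMSO for no effect and rapamycin for full effect; nearly all actives have a fitted effect of over 50% in size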
Conditions: phospho-rpS6 immunofluorescence/PI, 24 h; series mostly up to 38.3 µM; activity change, negative = inhibition: at the top concentration
Method in brief: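 Readout is phospho-S6 Alexa 488 signal normalized to PI per well, reported as % active cells with thresholds set from rapamycin (7.5 nM) and DMSO controls. Cells: Tsc2-/-, p53-/- MEFs, 24 hrs compound at 37 C; PI cell number serves as viability.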

Activity change, negative = inhibition, inactive:
COc1ccc(N2CCN(C(=O)c3cc(-c4ccc(C)c(F)c4)on3)CC2)cc1 -5.34%
Cc1c(C(=O)NCCc2ccc(Cl)cc2)cccc1-n1cnc2cccnc21 -9.06%
COc1ccc(N2CCN(C(=O)CSc3nc4ccccc4nc3Cc3ccc(Cl)cc3)CC2)cc1 -29.1%
CCOC(=O)N1CCc2c(sc3c2c(=O)n(-c2ccc(CC)cc2)c(=O)n3Cc2cccc(Cl)c2)C1 5.11%
Cc1ccc(C)c(N2CCN(C(=O)C3CCC(CNS(=O)(=O)c4cccs4)CC3)CC2)c1 (stereo unspecified) -8.29%
CCC1CN(C(=O)N2CCC(C(=O)NCCc3ccc(OC)c(OC)c3)CC2)c2ccccc2O1 (stereo unspecified) 8.53%
Cc1ccc(CNC(=O)CSc2c(C)cnc3c2c(=O)n(C)c(=O)n3C)cc1 0.17%
Cc1ccc(NC(=O)CN2C(=O)C(c3ccc(F)cc3)=NC23CCCCCC3)c(C)c1 -0.548%
CCCCOc1ccc(C2C(=O)N(C3CCCCC3)CC(=O)N2C2CCCCC2)cc1 (stereo unspecified) 6.33%
Cc1ccc(NC(=O)C2CCN(S(=O)(=O)c3cccc4nsnc34)CC2)cc1 -0.205%
CCn1cc(C(=O)OCC(=O)Nc2cc(Cl)ccc2C)c(=O)c2ccc(C)nc21 2.83%
Cc1ccc(C)c(N2CCN(C(=O)c3cc4cc5ccc(C)cc5nc4o3)CC2)c1 -3.2%
CC1CCN(S(=O)(=O)c2ccc3nc(NCc4ccc(N(C)C)cc4)ccc3c2)CC1 -20%
CCc1cccc(NC(=O)Cn2c(=O)n(CCCCCC(=O)NCc3ccc(F)cc3)c(=O)c3sccc32)c1 -13.4%
COc1ccc(C2C=C(c3ccccc3)Nc3nc(NC(C)=O)nn32)cc1 (stereo unspecified) -0.873%
CCn1nc(C)c2c(-c3ccccc3)cc(=O)n(C(C)C(=O)Nc3ccc(OC)c(OC)c3)c21 (stereo unspecified) 4.59%
Cc1cccc(NC(=O)Nc2cccs2)c1C -2.25%
CCOC(=O)c1ccccc1NC(=O)CN(c1ccccc1)S(=O)(=O)c1ccc(OCC)cc1 -14.4%
CCCCCCc1c(C)c2c(cc(C)c3c(C)coc32)oc1=O -8.98%
Cc1ccc(C)c(NC(=O)Cn2ncc3c(C)n(Cc4ccc(F)cc4)c(C)c3c2=O)c1 -0.435%
CC1=C(c2ccc(C)c(C)c2)S(=O)(=O)N(Cc2ccc(C(=O)NCc3ccccc3F)cc2)C1=O 2.9%
N#C/C(=C\c1ccc(O)cc1)C(=O)NCC1CCCO1 (stereo unspecified) -0.53%
Cc1cc(C)cc(NC(=O)Cn2nnc(-c3ccccc3F)n2)c1 -36.5%
COc1ccc(-c2cc(C(F)(F)F)n3nc(C)c(-c4ccccc4)c3n2)cc1OC -10.9%
O=C(CCc1cn(Cc2ccc(F)cc2)c2ccccc12)NC1CCCCC1 1.47%
CCOC(=O)c1c(Nc2ccc(C)c(C)c2)nnc(-c2ccccc2)c1-c1ccccc1 -7.95%
Cc1ccc(C)c(OCC(=O)Nc2sc3c(c2C#N)CCCC3)c1C -19.7%
CCCC(=O)Nc1cc2nn(-c3ccc(OC)cc3)nc2cc1C -5.17%
CCOc1ccc(NC(=O)NCCN2CCN(c3cc(Cl)ccc3C)CC2)cc1 -11.4%
O=C(NCCc1ccccc1)c1c[nH]c2ccc(S(=O)(=O)Nc3ccc(F)cc3F)cc2c1=O 6.05%
Cc1cc(C)c(NC(=O)Cn2c(=O)n(CCC(C)C)c(=O)c3cccnc32)c(C)c1 -0.129%
COc1ccc(CNC(=O)CN2N=C(c3ccc(Cl)cc3)CCC2=O)cc1 -1.32%
CCc1ccc(C(=O)c2cn(CC(=O)NCCc3ccccc3)c3nc(C)ccc3c2=O)cc1 -5.76%
COc1cccc(NC(=O)C2CCCN(c3ncnc4onc(-c5ccc(F)cc5)c34)C2)c1 (stereo unspecified) 4.01%
COc1ccc(Cn2c(SCc3ccc(C(=O)NCc4ccc(C)cc4)cc3)nc3cccnc32)cc1 -7.97%
O=C(NCCc1ccccc1)c1ccc2c(c1)N(Cc1ccc(Cl)cc1)C(=O)c1ccccc1S2(=O)=O -9.76%
Cc1ccc(N2CC(NC(=O)CCCc3ccccc3)CC2=O)cc1 (stereo unspecified) -4.33%
CCN(c1ccccc1C)S(=O)(=O)c1nnc(NC(=O)c2ccc(OC)c(OC)c2)s1 5.27%
Cc1ccc(C2=Nc3ccccc3N=C(c3ccc(F)cc3)C2)c(O)c1 -0.507%
CCc1nc(SC)ncc1C(=O)NCc1cccc(Br)c1 -0.8%
O=C(Cn1nc(Cc2cccnc2)c2ccccc2c1=O)N1CCN(c2ccccc2F)CC1 4.66%
Cc1ccc(Cl)cc1N1CCN(c2nc3ccc(C(=O)c4ccccc4)cc3n3cnnc23)CC1 -3.45%
Cc1cc(O)c2c(C)c(CC(=O)NCc3ccccc3Cl)c(=O)oc2c1 2.78%
COc1ccc(CNC(=O)c2ccc(CN3C(=O)C(C)=C(c4ccc(C)cc4)S3(=O)=O)cc2)cc1 1.57%
Cc1ccc(-n2ncc(C(=O)Nc3ccc4c(c3)OCCO4)c2C2CCN(C(=O)OC(C)(C)C)CC2)cc1C 6.63%
CC1=C(C(=O)NCc2cccc(F)c2)C2(CCCCCC2)OC1=O -2.38%
COc1ccc(Nc2nc3ccc(C)cc3nc2-n2nc(C)cc2C)cc1Cl 6.15%
COc1ccccc1N1CCN(C(=O)Cn2ncc3c2-c2cc(C)ccc2OC3)CC1 -2.89%
COCCN1CCc2nc(SCC(=O)Nc3ccc(C)c(Cl)c3)[nH]c(=O)c2C1 3.91%
COc1ccccc1NC(=O)CC1Sc2ccc(C(F)(F)F)cc2NC1=O (stereo unspecified) -9.69%
CCOc1ccccc1CNC(=O)Cn1c(=O)c2cccn2c2ccc(F)cc21 -2.34%
COc1ccc(-c2onc(C)c2C)cc1S(=O)(=O)NCc1cccs1 0%
CCOC(=O)c1noc2ncn(CC(=O)Nc3ccc(F)cc3Cl)c(=O)c12 -6.41%
Cc1ccc(OCCSc2nc3ccccc3n2CC(=O)N2CCOCC2)cc1 2.28%
CC1=C(C(=O)OCc2ccc(C)cc2)C(c2ccccc2C(F)(F)F)CC(=O)N1 (stereo unspecified) -12.1%
CCOc1ccc(C(=O)Nc2ccc3c(c2)CCCN3S(=O)(=O)c2ccc(C)cc2)cc1 12.7%
CC1CCCCN1Cc1c(O)ccc2c(=O)c(-c3ccc(Cl)cc3)c(C(F)(F)F)oc12 (stereo unspecified) -1.6%
COC(=O)c1c(NC(=O)c2ccc(Cl)c(Cl)c2)sc2c1CCCC2 7.91%
CCOc1ccc(NC(=O)CSc2nnc3scc(-c4ccccc4)n23)cc1 9.47%
O=C(Nc1ccccc1F)c1cnc(N2CCCCC2)c2ccccc12 -0.351%
Cc1oc(-c2ccccc2F)nc1Cn1c(SCc2cccc(C(F)(F)F)c2)nc2ccncc21 -0.874%
